# From the supplement of paper PMC8728848
# The other results are listed elsewhere or left out.
# B1: Cohesin-hLangerin (Homo sapiens) (protein)
# chain: LDDLDAVRIKVDTVNAKPGDTVRIPVRFSGIPSKGIANCDFVYSYDPNVLEIIEIEPGDIIVDPNPDKSFDTAVYPDRKIIVFLFAEDSGTGAYAITKDGVFATIVAKVKEGAPNGLSVIKFVEVGGFANNDLVEQKTQFFDGGANVGDTTEPATPTTPVTTPTTTDDLDAASYPRFMGTISDVKTNVQLLKGRVDNISTLDSEIKKNSDGMEAAGVQIQMVNESLGYVRSQFLKLKTSVEKANAQIQILTRSWEEVSTLNAQIPELKSDLEKASALNTKIRALQGSLENMSKLLKRQNDILQVVSQGWKYFKGNFYYFSLIPKTWYSAEQFCVSRNSHLTSVTSESEQEFLYKTAGGLIYWIGLTKAGMEGDWSWVDDTPFNKVQSARFWIPGEPNNAGNNEHCGNIKAPSLQAWNDAPCDKTFLFICKRPYVPSEPHHHHHH
# Columns and labels:
# Experiment in all cases: glycan array binding signal (z-score within array); higher = stronger binding
# Conditions in all cases: glycan notation: IUPAC condensed, linker removed
# [1] = target: Neu5Ac(a2-6)Gal(b1-4)GlcNAc(b1-2)Man(a1-3)[Man(a1-6)]Man(b1-4)GlcNAc(b1-4)GlcNAc
# Method in brief: (§1)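 Arrays were curated from the Consortium for Functional Glycomics database, 3228 in total, and kept only where the protein sequence was available. Binding is expressed as a within-array Z-score. This score was averaged across arrays of the same protein sequence at different concentrations or buffers and across linkers, and negative values can be read as non-binding.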
# [2] = target: Neu5Ac(a2-6)Gal(b1-4)GlcNAc(b1-2)Man(a1-3)[Neu5Ac(a2-3)Gal(b1-4)GlcNAc(b1-2)Man(a1-6)]Man(b1-4)GlcNAc(b1-4)GlcNAc
# Method in brief: as §1
# [3] = target: Neu5Ac(a2-6)Gal(b1-4)GlcNAc(b1-2)Man(a1-3)[Neu5Ac(a2-6)Gal(b1-4)GlcNAc(b1-2)Man(a1-6)]Man(b1-4)GlcNAc(b1-4)GlcNAc
# Method in brief: as §1
# [4] = target: Neu5Ac(a2-6)Gal(b1-4)GlcNAc(b1-2)Man(a1-3)[Neu5Ac(a2-6)Gal(b1-4)GlcNAc(b1-2)Man(a1-6)]Man(b1-4)GlcNAc(b1-4)[Fuc(a1-6)]GlcNAc
# Method in brief: as §1
# [5] = target: Neu5Ac(a2-6)Gal(b1-4)GlcNAc(b1-2)Man(a1-6)Man(b1-4)GlcNAc(b1-4)GlcNAc
# Method in brief: as §1
# [6] = target: Neu5Ac(a2-6)Gal(b1-4)GlcNAc(b1-2)Man(a1-6)[Gal(b1-4)GlcNAc(b1-2)Man(a1-3)]Man(b1-4)GlcNAc(b1-4)GlcNAc
# Method in brief: as §1
# [7] = target: Neu5Ac(a2-6)Gal(b1-4)GlcNAc(b1-2)Man(a1-6)[GlcNAc(b1-2)Man(a1-3)]Man(b1-4)GlcNAc(b1-4)GlcNAc
# Method in brief: as §1
# [8] = target: Neu5Ac(a2-6)Gal(b1-4)GlcNAc(b1-2)Man(a1-6)[Man(a1-3)]Man(b1-4)GlcNAc(b1-4)GlcNAc
# Method in brief: as §1
# [9] = target: Neu5Ac(a2-6)Gal(b1-4)GlcNAc(b1-2)[Neu5Ac(a2-6)Gal(b1-4)GlcNAc(b1-4)]Man(a1-3)[GlcNAc(b1-4)][Neu5Ac(a2-6)Gal(b1-4)GlcNAc(b1-2)[Neu5Ac(a2-6)Gal(b1-4)GlcNAc(b1-6)]Man(a1-6)]Man(b1-4)GlcNAc(b1-4)GlcNAc
# Method in brief: as §1
# [10] = target: Neu5Ac(a2-6)Gal(b1-4)GlcNAc(b1-2)[Neu5Ac(a2-6)Gal(b1-4)GlcNAc(b1-4)]Man(a1-3)[GlcNAc(b1-4)][Neu5Ac(a2-6)Gal(b1-4)GlcNAc(b1-4)Man(a1-6)]Man(b1-4)GlcNAc(b1-4)GlcNAc
# Method in brief: as §1
# [11] = target: Neu5Ac(a2-6)Gal(b1-4)GlcNAc(b1-2)[Neu5Ac(a2-6)Gal(b1-4)GlcNAc(b1-6)]Man(a1-6)[Neu5Ac(a2-6)Gal(b1-4)GlcNAc(b1-2)Man(a1-3)][GlcNAc(b1-4)]Man(b1-4)GlcNAc(b1-4)GlcNAc
# Method in brief: as §1
# [12] = target: Neu5Ac(a2-6)Gal(b1-4)GlcNAc(b1-3)Gal(b1-3)GlcNAc
# Method in brief: as §1
# [13] = target: Neu5Ac(a2-6)Gal(b1-4)GlcNAc(b1-3)Gal(b1-4)GlcNAc
# Method in brief: as §1
# [14] = target: Neu5Ac(a2-6)Gal(b1-4)GlcNAc(b1-3)Gal(b1-4)GlcNAc(b1-2)Man(a1-3)[Neu5Ac(a2-6)Gal(b1-4)GlcNAc(b1-3)Gal(b1-4)GlcNAc(b1-2)Man(a1-6)]GalNAc
# Method in brief: as §1
# [15] = target: Neu5Ac(a2-6)Gal(b1-4)GlcNAc(b1-3)Gal(b1-4)GlcNAc(b1-3)Gal(b1-4)GlcNAc
# Method in brief: as §1
# [16] = target: Neu5Ac(a2-6)Gal(b1-4)GlcNAc(b1-3)Gal(b1-4)GlcNAc(b1-3)Gal(b1-4)GlcNAc(b1-2)Man(a1-3)[Neu5Ac(a2-6)Gal(b1-4)GlcNAc(b1-3)Gal(b1-4)GlcNAc(b1-3)Gal(b1-4)GlcNAc(b1-2)Man(a1-6)]GalNAc
# Method in brief: as §1
# [17] = target: Neu5Ac(a2-6)Gal(b1-4)GlcNAc(b1-3)Gal(b1-4)GlcNAc(b1-3)GalNAc
# Method in brief: as §1
# [18] = target: Neu5Ac(a2-6)Gal(b1-4)GlcNAc(b1-3)Gal(b1-4)GlcNAc(b1-3)[Neu5Ac(a2-6)Gal(b1-4)GlcNAc(b1-3)Gal(b1-4)GlcNAc(b1-6)]GalNAc
# Method in brief: as §1
# [19] = target: Neu5Ac(a2-6)Gal(b1-4)GlcNAc(b1-3)Gal(b1-4)GlcNAc(b1-6)[Gal(b1-3)]GalNAc
# Method in brief: as §1
# [20] = target: Neu5Ac(a2-6)Gal(b1-4)GlcNAc(b1-3)Gal(b1-4)[Fuc(a1-3)]GlcNAc(b1-3)Gal(b1-4)[Fuc(a1-3)]GlcNAc
# Method in brief: as §1
# [21] = target: Neu5Ac(a2-6)Gal(b1-4)GlcNAc(b1-3)GalNAc
# Method in brief: as §1
# [22] = target: Neu5Ac(a2-6)Gal(b1-4)GlcNAc(b1-3)[Neu5Ac(a2-6)Gal(b1-4)GlcNAc(b1-6)]GalNAc
# Method in brief: as §1
# [23] = target: Neu5Ac(a2-6)Gal(b1-4)GlcNAc(b1-6)GalNAc
# Method in brief: as §1
# [24] = target: Neu5Ac(a2-6)Gal(b1-4)GlcNAc(b1-6)[Gal(b1-3)GlcNAc(b1-3)]Gal(b1-4)Glc
# Method in brief: as §1
# [25] = target: Neu5Ac(a2-6)Gal(b1-4)GlcNAc(b1-6)[Gal(b1-3)]GalNAc
# Method in brief: as §1
# [26] = target: Neu5Ac(a2-6)Gal(b1-4)GlcNAc6S
# Method in brief: as §1
# Neu5Ac(a2-6)GalNAc = target: Neu5Ac(a2-6)GalNAc
# Method in brief: as §1
# [27] = target: Neu5Ac(a2-6)GalNAc(b1-4)GlcNAc
# Method in brief: as §1
# [28] = target: Neu5Ac(a2-6)GalNAc(b1-4)GlcNAc6S
# Method in brief: as §1
# [29] = target: Neu5Ac(a2-6)GlcNAc(b1-4)GlcNAc
# Method in brief: as §1
# [30] = target: Neu5Ac(a2-6)GlcNAc(b1-4)GlcNAc(b1-4)GlcNAc
# Method in brief: as §1
binder,measurement,setting,value
B1,glycan array binding signal (z-score),[1],-0.439
same,glycan array binding signal (z-score),[2],-0.378
same,glycan array binding signal (z-score),[3],-0.398
same,glycan array binding signal (z-score),[4],-0.303
same,glycan array binding signal (z-score),[5],-0.442
same,glycan array binding signal (z-score),[6],-0.45
same,glycan array binding signal (z-score),[7],-0.405
same,glycan array binding signal (z-score),[8],-0.442
same,glycan array binding signal (z-score),[9],-0.323
same,glycan array binding signal (z-score),[10],-0.404
same,glycan array binding signal (z-score),[11],-0.442
same,glycan array binding signal (z-score),[12],-0.252
same,glycan array binding signal (z-score),[13],-0.441
same,glycan array binding signal (z-score),[14],-0.232
same,glycan array binding signal (z-score),[15],-0.358
same,glycan array binding signal (z-score),[16],-0.159
same,glycan array binding signal (z-score),[17],-0.422
same,glycan array binding signal (z-score),[18],-0.309
same,glycan array binding signal (z-score),[19],-0.407
same,glycan array binding signal (z-score),[20],-0.061
same,glycan array binding signal (z-score),[21],-0.381
same,glycan array binding signal (z-score),[22],-0.427
same,glycan array binding signal (z-score),[23],-0.363
same,glycan array binding signal (z-score),[24],-0.361
same,glycan array binding signal (z-score),[25],-0.403
same,glycan array binding signal (z-score),[26],-0.387
same,glycan array binding signal (z-score),Neu5Ac(a2-6)GalNAc,-0.371
same,glycan array binding signal (z-score),[27],-0.418
same,glycan array binding signal (z-score),[28],-0.405
same,glycan array binding signal (z-score),[29],-0.441
same,glycan array binding signal (z-score),[30],-0.447
